Results taken from the antibiotic and cytotoxicity screens of Wong et al. (2023).
The other results are listed elsewhere or left out.

What was measured:
HSkMC = human skeletal muscle cells; assay: cytotoxicity call (relative viability < 0.9); settings: 10 µM
HepG2 = assay: cytotoxicity call (relative viability < 0.9); settings: 10 µM
S. aureus RN4220 = assay: growth inhibition call (relative growth <= 0.2); settings: 50 µM

SMILES	cytotoxicity call (HSkMC)	cytotoxicity call (HepG2)	growth inhibition call (S. aureus RN4220)
NC/C=C/C(=O)O	inactive	inactive	inactive
COC(=O)c1c2oc(c1C(=O)OC)C(=O)N[C@H](Cc1ccccc1)Cn1cc(nn1)[C@H](Cc1ccccc1)NC(=O)N[C@H](COC(=O)NCCCCCC(=O)NO)CC2	inactive	inactive	inactive
COc1ccccc1C#Cc1cnc2c(c1)C(=O)N([C@@H](C)CO)C[C@H](C)[C@@H](CN(C)C(=O)c1ccc3c(c1)OCO3)O2	inactive	inactive	inactive
C[C@H](CO)N1C[C@H](C)[C@H](CN(C)C(=O)Nc2ccc3c(c2)OCO3)Oc2ccc(NC(=O)Cn3cnnn3)cc2C1=O	inactive	inactive	inactive
C[N+](C)(C)CCCC[C@@H]1NC(=O)[C@H]2C[C@@H](C(=O)NCCCCCCNC(=O)CS)[C@@H](c3ccc(O)cc3)N2C1=O	inactive	inactive	inactive
C[C@H](CO)N1C[C@H](C)[C@H](CN(C)Cc2cccc(C(F)(F)F)c2)Oc2ncc(C#CCN(C)C)cc2C1=O	inactive	inactive	inactive
O=C(CCCCCNC(=O)OCc1ccc(CO[C@@H]2C[C@H](c3ccc(C(F)(F)F)cc3)C=C(C(=O)N3CCN(Cc4ccccc4)CC3)O2)cc1)NO	inactive	inactive	inactive
COc1ccc(NC(=O)Nc2ccc3c(c2)C(=O)N([C@@H](C)CO)C[C@H](C)[C@H](CN(C)Cc2ccc(Oc4ccccc4)cc2)O3)cc1	inactive	inactive	inactive
C[C@@H]1CN([C@H](C)CO)C(=O)c2cc(C#Cc3cccc(F)c3)cnc2O[C@H]1CN(C)C(=O)C1CCOCC1	inactive	inactive	inactive
C[C@@H]1CN([C@@H](C)CO)C(=O)c2cc(NC(=O)Nc3ccc(F)cc3)ccc2O[C@@H](C)CCCCO[C@@H]1CN(C)C(=O)c1ccccc1	inactive	inactive	inactive
Cc1ccc(S[C@]2(C(=O)NCC(C)C)CC(=O)N(Cc3cc(C(F)(F)F)cc(C(F)(F)F)c3)[C@@H]2c2ccc(CO)cc2I)cc1	inactive	inactive	inactive
COc1ccc(S(=O)(=O)Nc2ccc3c(c2)C(=O)N([C@H](C)CO)C[C@H](C)[C@@H](CN(C)Cc2ccccc2)OCCCC[C@H](C)O3)cc1	inactive	inactive	inactive
Cc1noc(C)c1NC(=O)N(C)C[C@H]1OCCCC[C@H](C)Oc2ccc(NC(=O)Nc3ccc(C(F)(F)F)cc3)cc2C(=O)N([C@H](C)CO)C[C@@H]1C	inactive	inactive	inactive
Cc1ccc(S[C@]2(C(=O)NC(C)C)CC(=O)N(Cc3ccccc3Cl)[C@@H]2c2ccc(CO)cc2I)cc1	inactive	inactive	inactive
C[C@@H]1CN([C@H](C)CO)S(=O)(=O)c2ccc(C#CCN(C)C)cc2O[C@@H]1CN(C)Cc1cccnc1	inactive	inactive	inactive
COCCNC(=O)C[C@H]1CC[C@H]2[C@@H](COC[C@@H](O)CN2C(=O)Nc2ccc3c(c2)OCO3)O1	inactive	inactive	inactive
C[C@@H]1CN([C@H](C)CO)C(=O)c2cc(NS(=O)(=O)c3cn(C)cn3)ccc2O[C@@H](C)CCCCO[C@@H]1CN(C)C(=O)CCCN(C)C	inactive	inactive	inactive
C[C@@H]1CCCCO[C@H](CN(C)S(=O)(=O)c2ccc(F)cc2)[C@@H](C)CN([C@@H](C)CO)C(=O)c2cc(NC(=O)c3ccccc3)ccc2O1	inactive	inactive	inactive
Cc1noc(C)c1NC(=O)Nc1ccc2c(c1)C(=O)N([C@@H](C)CO)C[C@@H](C)[C@H](CN(C)CC1CC1)OCCCC[C@@H](C)O2	inactive	inactive	inactive

SMILES	cytotoxicity call (HSkMC)	cytotoxicity call (HepG2)	growth inhibition call (S. aureus RN4220)
Cn1cnc(S(=O)(=O)N[C@@H]2C=C[C@@H](CC(=O)N3CCN(c4ccccc4)CC3)O[C@H]2CO)c1	inactive	inactive	inactive
C[C@@H]1CN([C@H](C)CO)S(=O)(=O)c2ccc(-c3ccncc3)cc2O[C@@H]1CN(C)S(=O)(=O)c1ccccc1F	inactive	inactive	inactive
COc1ccc(NC(=O)N(C)C[C@H]2Oc3ccc(NC(=O)CCCCCC(=O)Nc4ccccc4N)cc3CC(=O)N([C@@H](C)CO)C[C@H]2C)cc1	inactive	inactive	inactive
Cc1ccc(S(=O)(=O)Nc2ccc3c(c2)C(=O)N([C@@H](C)CO)C[C@@H](C)[C@H](CN(C)C(=O)Nc2ccc(C(F)(F)F)cc2)OCCCC[C@@H](C)O3)cc1	inactive	inactive	inactive
CCOC(=O)COc1ccc2c(=O)cc(-c3ccccc3)oc2c1	inactive	active	inactive
CC(C)(CO)Nc1ncnc(N)c1[N+](=O)[O-]	inactive	inactive	inactive
Cn1cc(CO)cn1	inactive	inactive	inactive
O=C(C1=C[C@H](c2coc3ccccc3c2=O)C[C@H](OCCCCO)O1)N1CCOCCOCCOCCOCC1	inactive	inactive	inactive
O=C(CCCc1ccccc1)OCC(COC(=O)CCCc1ccccc1)OC(=O)CCCc1ccccc1	inactive	inactive	inactive
C[C@@H]1CN([C@H](C)CO)C(=O)CCCn2nncc2CO[C@@H]1CN(C)C(=O)C1CC1	inactive	inactive	inactive
CCc1cnc2c(c1OC)c(=O)n(CC(=O)NCCOC)c(=O)n2C	inactive	inactive	inactive
C[C@@H]1CN([C@@H](C)CO)C(=O)c2cc(NC(=O)Nc3ccc(C(F)(F)F)cc3)ccc2O[C@H]1CN(C)C(=O)NC1CCCCC1	inactive	inactive	inactive
C(=C\[C@@H]1Nc2ccccc2-c2nc3ccccc3n21)/c1ccccc1	inactive	inactive	inactive
C[C@@H]1CN([C@@H](C)CO)C(=O)c2cc(NC(=O)Nc3ccc(F)cc3)ccc2O[C@H]1CN(C)Cc1ccc(Oc2ccccc2)cc1	inactive	inactive	inactive
C[C@@H]1CN([C@H](C)CO)C(=O)c2cc(NC(=O)Cc3ccccc3)ccc2O[C@@H](C)CCCCO[C@H]1CN(C)Cc1ccncc1	inactive	inactive	inactive
COc1ccc2c3c(n(c2c1)C)[C@@H](CO)N(CC1CCOCC1)C[C@]13CCN(CC1)C(=O)Cc1cccnc1	inactive	inactive	inactive
COc1ccc(NC(=O)Nc2ccc3c(c2)C(=O)N([C@@H](C)CO)C[C@@H](C)[C@@H](CN(C)C(=O)CCC(F)(F)F)OCCCC[C@@H](C)O3)cc1	inactive	inactive	inactive
C[C@@H]1CN([C@H](C)CO)C(=O)CCCn2nncc2CO[C@H]1CN(C)C(=O)Nc1ccc(C(F)(F)F)cc1	inactive	inactive	active
C[C@@H]1CCCCO[C@@H](CN(C)CC2CCCCC2)[C@@H](C)CN([C@@H](C)CO)C(=O)c2cc(NC(=O)CCC(F)(F)F)ccc2O1	inactive	inactive	inactive

SMILES	cytotoxicity call (HSkMC)	cytotoxicity call (HepG2)	growth inhibition call (S. aureus RN4220)
C[C@H](CO)N1C[C@H](C)[C@@H](CN(C)CC2CCCCC2)OCCCC[C@H](C)Oc2ccc(NC(=O)Nc3ccccc3)cc2C1=O	inactive	inactive	inactive
N[C@H](c1ccc(Cl)cc1)c1cccnc1	inactive	inactive	inactive
CC(C)NC(=O)N(C)C[C@H]1Oc2ccc(NS(=O)(=O)c3ccc(F)cc3)cc2CC(=O)N([C@@H](C)CO)C[C@@H]1C	inactive	inactive	inactive
C[C@@H]1CCCCO[C@@H](CN(C)Cc2ccc3c(c2)OCO3)[C@H](C)CN([C@H](C)CO)C(=O)c2cc(NS(=O)(=O)c3ccccc3)ccc2O1	inactive	active	inactive
C#CC1(O)CCC2C3CCC4=Cc5oncc5CC4(C)C3CCC21C (stereo unspecified)	inactive	inactive	inactive
C[C@@H]1CN([C@H](C)CO)C(=O)c2cc(NS(=O)(=O)c3ccc(F)cc3)ccc2O[C@H]1CN(C)S(=O)(=O)c1cn(C)cn1	inactive	active	inactive
Cc1noc(C)c1NC(=O)Nc1ccc2c(c1)C(=O)N([C@@H](C)CO)C[C@H](C)[C@@H](CN(C)C(=O)c1ccccc1)OCCCC[C@@H](C)O2	inactive	inactive	inactive
COC(=O)[C@@H](C)N(C#N)c1nc(C)nc(C)n1	inactive	inactive	inactive
C[C@H](CO)N1C[C@H](C)[C@H](CN(C)S(=O)(=O)c2cn(C)cn2)Oc2c(NC(=O)c3ccc(-c4nccs4)cc3)cccc2C1=O	inactive	inactive	inactive
C[C@@H]1CN([C@H](C)CO)C(=O)c2cccc(NC(=O)Nc3cccc4ccccc34)c2O[C@@H]1CN(C)C(=O)Nc1cccc2ccccc12	inactive	inactive	inactive
O=C1OC(CO)C(O)C(O)C1O (stereo unspecified)	inactive	inactive	inactive
C[C@@H](NC(=O)C[C@@H]1CC[C@H](NC(=O)CN2CCOCC2)[C@@H](CO)O1)c1ccccc1	inactive	inactive	inactive
C[C@@H]1CCCCO[C@H](CN(C)C(=O)c2ccncc2)[C@@H](C)CN([C@H](C)CO)C(=O)c2cc(NC(=O)NC3CCCCC3)ccc2O1	inactive	inactive	inactive
N#CCC(=O)N1CCCCC1	inactive	inactive	inactive
CC(=O)CCC=C(C)CCC=C(C)CCC=C(C)CCC=C(C)C	inactive	inactive	inactive
C[C@@H]1CN([C@H](C)CO)C(=O)c2cc(NC(=O)c3ccccc3)ccc2O[C@@H](C)CCCCO[C@@H]1CN(C)C(=O)C1CCCCC1	inactive	inactive	inactive
CCC1C=C2C(=O)OC(=O)C2CC2=C(C(=O)OC2=O)C(O)C1CC (stereo unspecified)	inactive	inactive	inactive
O=C(CCCCCNC(=O)OCc1ccc(CO[C@H]2C[C@@H](c3ccccc3)C=C(C(=O)N3CCN(Cc4ccccc4)CC3)O2)cc1)NO	inactive	inactive	inactive
COc1ccc(S(=O)(=O)Nc2ccc3c(c2)C(=O)N([C@H](C)CO)C[C@H](C)[C@H](CN(C)Cc2ccc4c(c2)OCO4)OCCCC[C@@H](C)O3)cc1	inactive	inactive	inactive
